Measured values: PubChem BioAssay AID686970 (National Center for Advancing Translational Sciences (NCATS), 2013)
In all, about 360,000 compounds went through this assay and about 6,000 (1.7%) were called active. The inconclusive results got no clear call from the source; some entries with a clear call stand among them for comparison. The call rests on the fitted dose curve; in most records, active means well fitted cell-killing curve with a large enough effect; inconclusive means small, poorly fitted or top-dose-only effect, or effect the other way; inactive means flat fitted curve, though single readings scatter. No potency is given beside an inconclusive call; the fits are too rough.
Potency means the concentration at half of the fitted maximal effect; tags describe the fitted curve by direction and shape.

Assay: qHTS for induction of synthetic lethality in tumor cells producing 2HG: qHTS for the HT-1080-NT fibrosarcoma cell line;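 further: NT is the 2HG producing partner of a matched IDH1 knockdown line; nearly all actives have a fitted effect of over 55% in size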;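 on activity, negative = less viability: 0% = DMSO-treated cells and -100% = media-only wells without cells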
Conditions: HT-1080-NT fibrosarcoma viability, CellTiter-Glo ATP luminescence, 48 h; activity, negative = less viability: at 46.1 µM (top of the series) unless noted
Procedure, shortened: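 Toxicity toward the 2HG-producing NT line was scored as %Activity, normalised to DMSO and no-cell wells, from CellTiter-Glo luminescence after 48 hours' treatment.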
With Cc1cc(=O)oc2cc(OCC(=O)N3c4ccccc4CC3C)ccc12 (configuration not stated) the Potency was active: 2.59 µM.
For CNCCCOc1ccc(Cl)cc1C(C)(C)C, the Potency was inconclusive [cytotoxic, single point].
For CCc1cccc(NC(=O)CCCCCC2NC(=O)NC2C)c1 (configuration not stated), the Potency was “inactive”.
For Cn1c(SCC(=O)Nc2ccccc2Br)nnc1-c1cnccn1, the Potency was “inactive”.
With Cc1cc2cc(CNC(=O)Cc3ccc([N+](=O)[O-])cc3)ccc2n1C the Potency was “inactive”.
For CN(CC(=O)Nc1nc2ccccc2s1)S(=O)(=O)c1ccc(Br)cc1, the Potency was inconclusive [cytotoxic, single point].
In the case of CCC(CC)NC(=O)/C=C/c1ccccc1Cl, the Potency is reported as “inactive”.
In the case of Cc1ccc2c(c1)nnn2C1CCN(CC(=O)Nc2ccccc2N2CCOCC2)CC1, the Potency is reported as inconclusive [cytotoxic, single point].
In the case of COc1ccc(C(=O)O/N=C(\N)Cc2ccc(Cl)cc2Cl)cc1OC, the Potency is reported as inconclusive [cytotoxic, single point].
In the case of O=C(OCC(=O)N1CCCCC1)c1c[nH]c2ccccc12, the Potency is reported as “inactive”.
With O=Nc1ccc(NO)c2ccccc12 the Potency was inconclusive [cytotoxic, single point].
For COc1ccc(N2C(C)=CS/C2=C(/C#N)c2nnc(N3CCOCC3)n2-c2ccccc2)cc1, the Potency was inconclusive [cytotoxic, single point].
For O=C1CC(c2ccc(S(=O)(=O)Nc3cc(C(F)(F)F)cc(C(F)(F)F)c3)cc2)CN1 (configuration not stated), the Potency was inconclusive [cytotoxic, single point].
For C=CCC[C@@H](Cc1ccc(F)cc1)C(=O)OC[C@@H](NC(=O)[C@@H](CC=C)CC(=O)N[C@H](CO)Cc1ccccc1)C(C)(C)C, the Potency was inconclusive [cytotoxic, single point].
For Nc1nonc1C(=O)N/N=C/c1cc(Br)ccc1O, the Potency was inconclusive [cytotoxic, full curve].
For CC(=O)c1sc2c(c1OC(=O)c1ccccc1)c(=O)n(-c1ccccc1)c(=S)n2-c1ccccc1, the activity, negative = less viability was inconclusive: -15.8% [cytotoxic].
With CC(C)(C)OC(=O)C[C@H]1C/C=C\C[C@@H](CC(=O)N(CCO)Cc2ccccc2)C(=O)N[C@H](C(C)(C)C)COC1=O the Potency was “inactive”.
In the case of CCCn1c(C)cc(/C=C(\C#N)C(=O)OCC(=O)NC(=O)NCC)c1C, the Potency is reported as “inactive”.
With CCCOc1ccc(/C=C/C(=O)N2CCOCC2)cc1 the Potency was “inactive”.
In the case of Cc1cc(=O)n(CC(=O)NCCN2CCOCC2)c2c1c(C)nn2-c1ccccc1, the Potency is reported as inconclusive [cytotoxic, single point].
With Cc1ccc(C)c(CC(=O)N2CCCC(c3cc(C(=O)NCc4cccnc4)no3)C2)c1 (configuration not stated) the Potency was inconclusive [rising, single point].
In the case of CCc1nc2c(OCC(=O)c3ccc(Cl)cc3Cl)cccn2c1N(C)C(=O)COc1ccccc1, the Potency is reported as inconclusive [cytotoxic, single point].
With O=C(CC1SC(=Nc2ccccc2)N(CCc2c[nH]c3ccccc23)C1=O)Nc1ccccc1F (configuration not stated) the Potency was inconclusive [cytotoxic, partial curve].
In the case of c1ccc(-c2nc(-c3ccncc3)n[nH]2)nc1, the Potency is reported as inconclusive [cytotoxic, single point].
With c1ccn2cc(-c3ccc4c(c3)OCCO4)nc2c1 the Potency was inconclusive [cytotoxic, single point].
With O=C(NCc1cccnc1)c1cc(C2CCCCN2C(=O)c2cccs2)on1 (configuration not stated) the Potency was “inactive”.
With CCn1ccnc1CN(C)C(=O)c1cc(COc2ccc(OC)c3ccccc23)on1 the Potency was “inactive”.
For Cc1cccc(N(Cc2ccccc2)C(=O)c2ccccc2F)c1, the Potency was inconclusive [cytotoxic, single point].
For C=CCNC(=S)N/N=C/c1ccc(C)cc1C, the Potency was active: 23.1 µM.
In the case of N/C(=N\OC(=O)Cc1ccccc1)c1ccc([N+](=O)[O-])cc1, the Potency is reported as inconclusive [rising, partial curve].
For CC(C)c1ccc(S(=O)(=O)c2nnn3c2nc(N2CCCCC2)c2ccccc23)cc1, the Potency was “inactive”.
For Cc1ccnc(NCc2ccc(Cl)cc2)c1, the Potency was inconclusive [cytotoxic, single point].
In the case of CCCCN(CC)c1nc(-c2ccncc2)nc2ccccc12, the Potency is reported as inconclusive [cytotoxic, single point].
In the case of CNC(=O)c1c(C)nn(-c2ccc(F)c(Cl)c2)c1-c1cc(C)on1, the Potency is reported as “inactive”.
For Cc1ccc(C(NC(N)=O)c2ccccc2C)cc1 (configuration not stated), the Potency was inconclusive [cytotoxic, single point].
In the case of O=C(N[C@@H](Cc1c[nH]c2ccccc12)C(=O)O)c1ccccc1Cl, the Potency is reported as inconclusive [rising, single point].
For CC1(C)CC2CC(C)(CN2S(=O)(=O)c2ccc(F)cc2F)C1 (configuration not stated), the Potency was “inactive”.
In the case of N#CC(NC(=O)OCc1ccccc1)c1ccccc1 (configuration not stated), the Potency is reported as “inactive”.
In the case of Brc1ccc(-c2noc3c2-c2nc(-c4ccccc4)sc2CC3)cc1, the Potency is reported as inconclusive [rising, single point].
With COc1ccc(C(=O)NC(=S)NNC(=O)c2cnccn2)cc1 the Potency was inconclusive [cytotoxic, full curve].
With COc1cccc(N2CCN(C(=O)c3[nH]c(C)c(C(C)=O)c3C)CC2)c1 the Potency was active: 7.08 µM.
In the case of NC(=O)c1ccc(N2CCN(c3ccccc3O)CC2)c([N+](=O)[O-])c1, the Potency is reported as “inactive”.
With COC(=O)[C@]12CCCCC=C1N(Cc1ccc(Cl)cc1Cl)C(=O)[C@H](CC(=O)NCc1ccc(OC)c(OC)c1)C2 the Potency was inconclusive [cytotoxic, single point].
In the case of COc1nc(NC2OC(CO)C(O)C(O)C2O)c(N)c(=O)[nH]1 (configuration not stated), the Potency is reported as “inactive”.
In the case of O=C(COC(=O)C1=COCCO1)Nc1cc(C(F)(F)F)ccc1Cl, the Potency is reported as “inactive”.
In the case of Cc1[nH]cnc1C(=O)N/N=C/c1c(Cl)cccc1Cl, the Potency is reported as inconclusive [cytotoxic, partial curve].
With Cc1nc2c(C)cccc2cc1C(=O)N/N=C/c1ccc(O)cc1 the Potency was inconclusive [cytotoxic, partial curve].
In the case of CN(CCOc1ccccc1)CC(=O)Nc1ccc(Br)cc1F, the Potency is reported as inconclusive [cytotoxic, single point].
With CC(=O)Nc1cncc(-c2ccccc2CO)n1 the Potency was inconclusive [rising, partial curve].
In the case of CCN(/N=C/c1ccc(N(C)C)cc1)c1nc2ccccc2[nH]1, the Potency is reported as inconclusive [cytotoxic, single point].
In the case of Fc1cccc(Cl)c1C1SCc2nc3ccccc3n21 (configuration not stated), the Potency is reported as inconclusive [cytotoxic, single point].
With COc1ccc([N+](=O)[O-])c(S(=O)(=O)c2ccc(Cl)cc2)n1 the Potency was active: 23.1 µM.
For NCC(=O)N1CCC(C(=O)N[C@@H](Cc2c[nH]c3ccccc23)C(=O)O)CC1, the Potency was “inactive”.
For Cc1ccc(Nc2cc(C)nc3ccccc23)c(C)c1, the Potency was inconclusive [cytotoxic, partial curve].
With CCCCC[C@@H](C)N1C[C@@H](COCc2ccccc2)Oc2cc(N3CC[C@@H](O)C3)ccc2S1(=O)=O the Potency was inconclusive [cytotoxic, single point].
With Cc1cc(C)n(-c2nc(NCC(C)O)c3c4c(sc3n2)COC(C)(C)C4)n1 (configuration not stated) the Potency was inconclusive [cytotoxic, single point].
For CCCOc1ccc(-c2nc(N3CCN(C)CC3)c3ccccc3n2)cc1, the Potency was inconclusive [cytotoxic, single point].
In the case of CN1CC[C@]2(CCN3CCc4c(oc5ccccc45)[C@@H]3C2)N(C)C1=O, the activity, negative = less viability is reported as inconclusive: -12.2% [cytotoxic].
In the case of CCCN(CCC)C(=O)CC(c1ccccc1)c1cc(Br)ccc1O (configuration not stated), the Potency is reported as inconclusive [cytotoxic, single point].
With COc1ccc(CC(=O)N[C@@H]2c3ccccc3CC[C@H]2OCc2ccccc2)cc1 the Potency was “inactive”.
With Cc1cc(C)c2c(C)c(C(=O)NCc3ccc(S(N)(=O)=O)cc3)oc2c1 the Potency was inconclusive [cytotoxic, partial curve].
In the case of N#CCCN(Cc1ccccc1)C(=O)CCC(=O)c1ccc(F)cc1, the Potency is reported as “inactive”.
With COC(=O)COc1ccc(S(=O)(=O)NCc2ccncc2)cc1 the Potency was “inactive”.
With COC(=O)C1=CN(c2ccc(OC)cc2)C(N)=C(C#N)C1c1cccc2ccccc12 (configuration not stated) the Potency was inconclusive [cytotoxic, partial curve].
In the case of CCCC(O)(CCC)C(=O)NN(C(=O)CCl)c1ccccc1, the Potency is reported as inconclusive [cytotoxic, single point].
For CN(C(=O)CN1C(=O)S/C(=C\c2ccccc2Cl)C1=O)C1CCS(=O)(=O)C1 (configuration not stated), the Potency was inconclusive [rising, single point].
With CC(/C=C/c1ccccc1)=N\NC(=O)Cn1nc(C)cc1C the activity, negative = less viability was inconclusive: 31.5%.
With CCN(CC)CCNC(=O)c1sc2ncn(CC(=O)Nc3ccc(C)c(Cl)c3)c(=O)c2c1C the Potency was inconclusive [cytotoxic, single point].
With Cn1c(OCc2cccnc2)nc2c1c(=O)n(Cc1ccc(Br)cc1)c(=O)n2C the Potency was “inactive”.
For CCCCOc1ccc(C2CC(=O)NC2=O)cc1 (configuration not stated), the Potency was “inactive”.
In the case of COc1ccc(-c2csc(NC3OC(=O)c4ccccc43)n2)cc1 (configuration not stated), the Potency is reported as inconclusive [cytotoxic, single point].
In the case of CCc1ccccc1N(C)S(=O)(=O)c1ccc2[nH]cc(C(=O)N3CCc4ccccc43)c(=O)c2c1, the Potency is reported as inconclusive [cytotoxic, single point].
